# From PubChem BioAssay AID588342 (National Center for Advancing Translational Sciences (NCATS), 2011)
# Screen size: about 360,000 compounds; about 25,000 (6.9%) were called active. Inconclusive means that the source gave no clear call. Such entries were picked first, then a sample of the others. Calls come from the whole dose curve; as a rule, active = well fitted inhibition curve with a large enough effect; inconclusive = small, poorly fitted or top-dose-only effect; inactive = flat fitted curve, though single readings scatter. Potencies beside an inconclusive call are fits to weak or partial responses and may not hold up.
# Target: Luciferin 4-monooxygenase (Photinus pyralis) (UniProt P08659)
# UniProt P08659, sequence (P08659 whole entry, looked up): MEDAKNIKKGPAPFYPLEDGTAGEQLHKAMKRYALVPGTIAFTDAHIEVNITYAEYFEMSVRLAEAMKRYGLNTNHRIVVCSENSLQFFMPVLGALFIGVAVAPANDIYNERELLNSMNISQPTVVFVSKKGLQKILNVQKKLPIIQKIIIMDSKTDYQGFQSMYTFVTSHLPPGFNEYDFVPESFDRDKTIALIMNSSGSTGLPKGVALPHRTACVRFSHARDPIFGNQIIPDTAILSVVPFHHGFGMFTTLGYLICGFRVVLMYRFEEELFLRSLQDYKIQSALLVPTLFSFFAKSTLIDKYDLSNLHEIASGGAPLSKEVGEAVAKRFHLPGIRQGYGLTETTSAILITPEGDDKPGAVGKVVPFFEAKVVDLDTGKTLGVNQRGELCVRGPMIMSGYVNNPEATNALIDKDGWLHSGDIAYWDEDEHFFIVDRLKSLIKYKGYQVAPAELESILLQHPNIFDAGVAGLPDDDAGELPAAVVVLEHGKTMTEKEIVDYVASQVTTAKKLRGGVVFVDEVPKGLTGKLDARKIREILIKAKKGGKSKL
# Test: qHTS profiling assay for firefly luciferase inhibitor/activator using purifed enzyme and Km concentrations of substrates (counterscreen for miR-21 project); note: nearly all actives have a fitted effect of over 55% in size;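 for activity change, negative = inhibition: plate controls were vehicle for no effect and reference inhibitor for full effect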
# Settings: purified FLuc, luminescence inhibition; series mostly up to 57.5 µM; activity change, negative = inhibition: at the top concentration
# Procedure, shortened: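 Purified P. pyralis luciferase, 10 nM final, with Km-level 10 uM D-luciferin and 10 uM ATP in 50 mM Tris acetate pH 7.5, 10 mM Mg acetate, 0.01% Tween-20, 0.05% BSA; 6-point qHTS titration about 60 µM downward; luminescence read.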
# Potency is the fitted concentration of half-maximal effect; tags give direction and shape of the fitted curve.
SMILES,Potency,"activity change, negative = inhibition"
Cc1ccc(OCCNC(=O)c2ccccc2O)cc1,"inconclusive: 37.9 µM [inhibitor, partial curve, poor fit]",
COc1ccc(OCC(=O)Nc2ccc(Cl)cc2)cc1,"inconclusive: 23.9 µM [inhibitor, partial curve]",
CCc1ccc(NC(=O)c2sc3nc4c(cc3c2N)CN(CC)CC4)cc1,"inconclusive: 15.1 µM [inhibitor, partial curve, poor fit]",
O=C(Nc1ccc(F)cc1)c1ccc(Cn2nc(N3CCN(c4ccccc4)CC3)ccc2=O)o1,,inactive: 7.85%
Cc1ccccc1NC(=O)c1ccc(NC(=O)c2ccco2)cc1,"inconclusive: 23.9 µM [inhibitor, partial curve, poor fit]",
O=C(NCCc1ccc(F)cc1)c1ccc2nccnc2c1,active: 8.49 µM,
COC(=O)c1ccc(NC(=O)CCc2c(C)nn(-c3ccc(N4CCOCC4)nn3)c2C)cc1,active: 19 µM,
CC(Cc1ccccc1)C(=O)Nc1ccc(Br)cc1 (centres undefined),"inconclusive: 21.3 µM [inhibitor, partial curve]",
Cc1ccc(O)c(-c2cc(-c3ccccc3[N+](=O)[O-])[nH]n2)c1,"inconclusive: 23.9 µM [inhibitor, single point]",
O=C(Nc1ccc(F)cc1)c1ccccc1NS(=O)(=O)N1CCCC1,"inconclusive: 37.9 µM [inhibitor, partial curve, poor fit]",
COc1ccc(-c2cccc(NC(=O)c3cccs3)c2)nn1,"inconclusive: 21.3 µM [inhibitor, partial curve, poor fit]",
Cc1cc(O)c(/C=N/Nc2ccccc2)c(=O)o1,"inconclusive: 21.3 µM [inhibitor, single point]",
COc1ccc(NC(=O)c2cccc3c2C(=O)N(CC2CCCO2)C3)cc1OC (centres undefined),active: 26.9 µM,
Cc1ccc(NC(=O)CCCn2c(=O)c3cccn3c3cccnc32)c(Cl)c1,,inactive: 5.02%
Cc1nn2c3c(cnc2c1-c1ccccc1)C(=O)CCC3,active: 15.1 µM,
Cc1c(C(=O)c2ccc(Cl)cc2[N+](=O)[O-])c2ccccn2c1CCC#N,,inactive: 1.78%
C=C1CCC2[C@](C)(CO[C@@H]3O[C@H](CO)[C@@H](O)[C@H](O)[C@H]3O)CCC[C@@]2(C)[C@@H]1CCC1=CCOC1=O (some centres undefined),,inactive: 0.519%
O=C(CN1CCN(Cc2ccc(Cl)cc2)C1=O)NCc1ccc(F)cc1,,inactive: -3.28%
COc1cccc(CNC(=O)c2ccc(NC(=O)CC3SC(N4CCCCC4)=NC3=O)cc2)c1 (centres undefined),"inconclusive: 12 µM [inhibitor, partial curve, poor fit]",
CC(C)(C)c1ccc(C(=O)N2CCC(C(=O)NCC3CCCO3)CC2)cc1 (centres undefined),"inconclusive: 26.9 µM [inhibitor, partial curve, poor fit]",
O=C(NNC(=S)NC1CCCCC1)c1sc2ccccc2c1Cl,"inconclusive: 37.9 µM [inhibitor, partial curve, poor fit]",
Cc1ccc(C2=Nc3ccccc3N(CC(=O)Nc3cccc(F)c3)C(=O)C2)cc1C,"inconclusive: 12 µM [inhibitor, partial curve]",
COc1ccc(-c2noc(-c3ccc(NCc4ccccc4OC)c([N+](=O)[O-])c3)n2)cc1,"inconclusive: 13.5 µM [inhibitor, partial curve]",
N#C/C(=N\Nc1ccccc1[N+](=O)[O-])C(=N)N1CCCCC1,active: 2.39 µM,
OCCNCc1ccc(OCc2ccc(Cl)cc2Cl)cc1,active: 15.1 µM,

SMILES,Potency,"activity change, negative = inhibition"
Cc1ccc(CSc2cn(CC(=O)N3CCCCC3)c3ccccc23)cc1,"inconclusive: 15.1 µM [inhibitor, partial curve]",
CC(C)(C)N(Cc1ccccc1)C(=O)COC(=O)C1=NN(c2ccccc2)C(=O)CC1,,inactive: 0.0411%
CC(C)(C)NC(=O)C(c1ccncc1)N(Cc1ccco1)C(=O)c1ccc(-c2ccccc2)[nH]1 (centres undefined),"inconclusive: 30.1 µM [inhibitor, partial curve, poor fit]",
COc1ccc(Cl)cc1NC(=O)CCC(=O)c1ccc(C)cc1,,inactive: 2.33%
S=c1nc(SCc2ccccc2)[nH]c2ccccc12,"inconclusive: 30.1 µM [inhibitor, single point]",
NN1C(=O)/C(=C\c2ccco2)SC1=S,"inconclusive: 33.8 µM [inhibitor, partial curve, poor fit]",
Cc1cc(C(=O)Nc2ccccc2)c(C)o1,"inconclusive: 37.9 µM [inhibitor, partial curve, poor fit]",
Cc1oc(-c2ccccc2)cc1C(=O)Nc1cccc(C(=O)O)c1,"inconclusive: 26.9 µM [inhibitor, partial curve]",
CCN(CC)CCNC(=O)Cn1ncc2c([nH]c3ccccc32)c1=O,,inactive: 0.454%
O=C(NCCCCNC(=O)c1cccnc1)c1cccnc1,,inactive: 5.54%
Fc1ccccc1NC(=S)NCCc1cccc(Cl)c1,active: 23.9 µM,
COC(=O)c1ccccc1NS(=O)(=O)c1ccc2[nH]c(=O)[nH]c2c1,,inactive: -2.28%
CCOc1ccc(-c2cnc(NCc3ccc(OC)cc3OC)n2C)cc1,,inactive: 2.76%
CCN(CC)C(=O)Oc1ccc2c(=O)c(-c3ccc(OC)cc3)c(C)oc2c1,"inconclusive: 30.1 µM [inhibitor, partial curve, poor fit]",
O=C(Nc1cc(C(F)(F)F)ccc1N1CCOCC1)c1ccc2ccccc2n1,"inconclusive: 13.5 µM [inhibitor, partial curve]",
O=c1c2[nH]c3cccc(Cl)c3c2ncn1CC1CCCO1 (centres undefined),"inconclusive: 19 µM [inhibitor, single point]",
COc1cccc(C(=O)CSc2nnnn2C)c1,,inactive: -10.3%
CSC1=NCCN1C(=O)c1ccc2ccccc2c1,"inconclusive: 8.49 µM [inhibitor, partial curve, poor fit]",
CC(=O)N/C(=C/c1ccc2c(c1)OCO2)C(=O)NCc1ccccc1,,inactive: 1.4%
Cc1cc(/C=N/Nc2ccc([N+](=O)[O-])cn2)c(C)n1-c1ccccc1,"inconclusive: 10.7 µM [inhibitor, partial curve]",
Cc1ccc(C(=O)Nc2ccncc2)c(Cl)c1,"inconclusive: 33.8 µM [inhibitor, single point]",
c1ccc(CSCc2cn3ccccc3n2)cc1,active: 16.9 µM,
COc1cc(N=Nc2ccccc2C(=O)O)ccc1O,"inconclusive: 30.1 µM [inhibitor, single point]",
CCNc1nc(NCC)nc(N/N=C/c2ccc(N(C)C)cc2)n1,"inconclusive: 37.9 µM [inhibitor, partial curve, poor fit]",
COc1ccc(OC)c(S(=O)(=O)N2CCN(CC(O)COc3ccccc3)CC2)c1 (centres undefined),,inactive: -2.29%

SMILES,Potency,"activity change, negative = inhibition"
CCOC(=O)CN1C(=O)S/C(=C/C=C/c2ccc(N(C)C)cc2)C1=O,active: 4.78 µM,
Cc1nc2ccc(NC(=O)COc3ccccc3)cc2s1,"inconclusive: 19 µM [inhibitor, partial curve]",
COc1cccc(C(=O)Nc2nnc(-c3cccs3)o2)c1,"inconclusive: 26.9 µM [inhibitor, partial curve]",
COc1cc2c(cc1NC(=O)COC(=O)CNC(=O)c1ccccc1)oc1ccccc12,"inconclusive: 10.7 µM [inhibitor, partial curve]",
COc1cnc(-c2ccccn2)nc1Sc1ccc(C)cc1,,inactive: -6.82%
C/C(=N\Nc1ncc(Cl)cc1Cl)c1ccc2c(c1)OCO2,"inconclusive: 5.36 µM [inhibitor, partial curve, poor fit]",
Cc1ccc2c(c1)c1c(c(=O)n(Cc3ccccc3)c(=O)n1CC(=O)Nc1ccccc1C)n2C,,inactive: -4.78%
CCOC(=O)C1=C(C)NC(=S)NC1c1ccc(-c2ccc(Cl)cc2)o1 (centres undefined),,inactive: -10%
Cc1ccc(CSc2nc(=O)c3c(n2C)NC(=O)CC3c2ccc(OC(C)C)cc2)cc1 (centres undefined),"inconclusive: 15.1 µM [inhibitor, partial curve]",
Cc1ccc(NC(=O)C2CCN(C(=O)NC3CCCCC3)CC2)cc1Cl,,inactive: 12.2%
CCCn1c(O)c(N=NC(=O)CNC(=O)/C=C/c2ccc(OC)cc2)c2ccccc21,"inconclusive: 23.9 µM [inhibitor, single point]",
Cc1cc(C)n(C(=O)CNC(=O)c2ccc3c(c2)OCCO3)n1,"inconclusive: 26.9 µM [inhibitor, partial curve]",
Cc1ccc(S(=O)(=O)Nc2cc3c(cc2N2CCOCC2)n(C)c(=O)n3C)c(C)c1,,inactive: -1.88%
O=C(Nc1ccccc1)c1ccc(-c2ccc(F)cc2)s1,"inconclusive: 2.13 µM [inhibitor, full curve]",
CCNC(=O)c1ccccc1-c1nc(-c2ccccc2OC)no1,"inconclusive: 37.9 µM [inhibitor, single point]",
CCCC(=O)NNC(=O)c1c(O)c2ccccc2[nH]c1=O,,inactive: -2.31%
Cc1cc(NC(=O)COC(=O)c2cccc(OCc3ccccc3)c2)no1,,inactive: -0.314%
O=c1[nH]c(Nc2ccccc2)cc2ccccc12,"inconclusive: 23.9 µM [inhibitor, partial curve]",
Cc1cccc(C(=O)N/N=C/c2ccncc2)c1,"inconclusive: 26.9 µM [inhibitor, partial curve, poor fit]",
COc1ccc(S(=O)(=O)N2CCC(C(=O)Nc3ccccc3N3CCCCC3)CC2)cc1OC,,inactive: -1.88%
N/C(=N\OC(=O)CCC1CCCC1)c1ccccn1,active: 0.478 µM,
COC(=O)c1cn(-c2ccccc2)nc1-c1ccccc1,"inconclusive: 26.9 µM [inhibitor, single point]",
Cc1ccc(NC(=O)COC(=O)c2ccc(-n3cccn3)cc2)cc1C,,inactive: 3.61%
CN(Cc1ccccc1)CC(O)COc1ccc(CNCc2cc3ccccc3s2)cc1 (centres undefined),,inactive: -0.152%
